# Data as given in publication PMC12040169 (PLOS Biology, 2025).
# Some of the results follow.
# Tested on: T1, C. trachomatis L2/434/Bu expressing GFP (CTL2-GFP)
# T1 construct: L2/434/Bu GFP intracellular growth in HeLa cells
# Set-up: species or system HeLa; C. trachomatis total inclusion area by high-content imaging, normalised to DMSO
# Conditions: total inclusion area; 28.5 h, 10 µM; inhibitor
# How it was run: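 Imaging read-out: GFP inclusions and Hoechst nuclei captured by high-content imaging after fixation. Inclusion area/number = chlamydial growth; nuclei count = host cell viability. MIC calculated per earlier method.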
row,SMILES,% of control remaining
1,Cc1cc(C2CCCCCN2S(=O)(=O)c2ccc3[nH]c(=O)[nH]c(=O)c3c2)no1 (stereo not drawn) [CBK286404],92.579
2,CCN(CC)C(=O)Cn1ncc2c3sc(C)cc3n(CC)c2c1=O [CBK284167],61.9074
3,CC(=O)Nc1ccccc1NC(=O)COc1ccc(Br)cc1C [CBK265072],122.463
4,COCc1cn([C@H]2CO[C@H]3[C@@H]2OC[C@H]3OC(=O)Nc2ccc(C)cc2)nn1 [CBK289489],83.3808
5,Nc1ncnc2c1ncn2[C@@H]1O[C@H](CCl)[C@H](O)C1O (stereo partly drawn) [CBK201252],76.9805
6,Cc1ccc(S(=O)(=O)Nc2ccc(C3(c4ccc(NS(=O)(=O)c5ccc(C)cc5)cc4)c4ccccc4-c4ccccc43)cc2)cc1 [CBK261154],86.2674
7,Cc1nn(CC(=O)NC(C)(C)C)c(=O)c2cc3sccc3n12 [CBK284021],91.3799
8,O=C(/C=C/c1ccco1)Nc1cccc2c(NC(=O)/C=C/c3ccco3)cccc12 [CBK264974],102.055
9,COc1ccc(OC)c(C2C(C(=O)c3ccc(C)cc3)=C(O)C(=O)N2Cc2cccnc2)c1 (stereo not drawn) [CBK264492],113.904
10,Cc1cc(NC(=O)c2cc3ccccc3oc2=O)nc2c1c(=O)oc1ccccc12 [CBK287445],104.275
11,Cc1cc(Cl)cc(C)c1NS(=O)(=O)c1ccc(N2CCCNCC2)c2ccccc12 [CBK004433C],51.8973
12,COc1cccc(CN(Cc2ncc[nH]2)Cc2ccco2)c1 [CBK282496],119.204
13,CN1CCc2c(sc3nc(SCc4cccc5ccccc45)n(-c4ccccc4)c(=O)c23)C1 [CBK264556],94.638
14,O[C@@H]1C[C@@H](c2nc(-c3ccccn3)no2)N(Cc2ccccc2)C1 [CBK288900],105.062
15,Cc1[nH]c2ccccc2c1C(=O)C(=O)Nc1ccc(C#N)cc1 [CBK269896],95.985
16,CC1(C)CC(=O)N(C2CCCCC2)C(=O)C1C#N (stereo not drawn) [CBK009894],108.388
17,CCCCN(C=O)c1c(CC)nc2c(OCCOc3ccc(F)cc3)cccn12 [CBK147631],118.069
18,COC(=O)CCc1ccc(S(=O)(=O)N2CCCN(Cc3cccc(Br)c3)CC2)cc1 [CBK062981],85.8333
19,COc1ccc(C(=O)N2CCC3(CCN(Cc4cc(=O)[nH]c(=O)[nH]4)C3)C2)cc1OC (stereo not drawn) [CBK132162],85.8688
20,O=C(Cn1ccnc1)N1CCCCC1c1nc2ccccc2[nH]1 (stereo not drawn) [CBK283936],92.6063

row,SMILES,% of control remaining
1,CC(C)C(=O)N1CCC(c2nc3ccccn3c2NC(C)(C)C)CC1 [CBK284745],114.833
2,CCCC(=O)Nc1nnc(-c2ccc(C)cc2C)o1 [CBK287700],94.2832
3,COc1ccc(F)c(CN(CC(C)(C)CN)C(=O)Nc2ccccc2C(F)(F)F)c1 [CBK002412C],84.2164
4,CCN1CCC(NC(=O)CSc2nc3ccccc3n2CCOC)CC1 [CBK306100],55.585
5,O=C(Nc1cccc2ccccc12)C1CCCN1S(=O)(=O)c1ccc(F)cc1 (stereo not drawn) [CBK138924],72.3475
6,Cc1cc(N2CCCC2)ccc1NC(=O)CCn1c(-c2cccs2)n[nH]c1=S [CBK297883],125.774
7,CCOC(=O)c1nc(N)oc1C [CBK056636],7.711
8,CN(Cc1ccc(-c2ccc(S(C)(=O)=O)cc2)nc1)C1CCNCC1 [CBK163942],110.212
9,Cc1cc(/C=N/NC(=O)c2ccc(CN3CCOCC3)cc2)c(C)n1-c1ccccc1 [CBK263329],104.926
10,Cc1ccccc1COc1cccn2c(N(C)CC3CCCO3)c(C)nc12 (stereo not drawn) [CBK147231],88.3155
11,CCN(CC(=O)NCc1ccc(F)cc1)C(=O)c1ccc(C#N)cc1 [CBK305841],119.214
12,CN(CCC#N)S(=O)(=O)c1ccc(OC(F)(F)F)cc1 [CBK044415],92.1519
13,O=C(Nc1ccc(NC(=O)c2cc3ccccc3o2)cc1)c1ccc(-c2cccc([N+](=O)[O-])c2)o1 [CBK268579],132.822
14,COc1cccc(N2CCC(=O)N2)c1 [CBK087441],84.2016
15,Oc1cccc(Sc2cc(N3CCCC3)ncn2)c1 [CBK093749],100.332
16,Cc1nn(C)cc1-c1cncn1CCCN1CCCCC1 [CBK281493],77.548
17,Cc1cc(C)n(CC(=O)N2CCOC(c3ccccc3Cl)C2)n1 (stereo not drawn) [CBK304927],68.4289
18,Cc1cc2ccccc2n2c(SCC(=O)NCCc3ccccc3)nnc12 [CBK265682],87.3701
19,O=C(CSc1nc(O)cc(O)n1)Nc1ccc(I)cc1 [CBK269467],108.394
